Here are results for 39 compounds from the antibiotic and cytotoxicity screens of Wong et al. (2023).

The other results are listed elsewhere or left out.

For this test, the system named is S. aureus RN4220. The experiment in a line: growth inhibition call (relative growth <= 0.2). The conditions noted are these: 50 µM.
Regarding `[O-][n+]1ccccc1[S][Zn][S]c1cccc[n+]1[O-]`, the growth inhibition call is “active”.
With `COc1cc2c3cc1Oc1c(OC)c(OC)cc4c1[C@@H](Cc1cccc(c1)Oc1ccc(c(O)c1)C[C@@H]3N(C)CC2)N(C)CC4` the entry was “inactive”.
For the compound `CCC(COC(=O)c1cc(OC)c(OC)c(OC)c1)(c1ccccc1)N(C)C.O=C(O)C=CC(=O)O` (centres undefined), the growth inhibition call is “inactive”.
For `CC(CO)NC(=O)C1C=C2c3cccc4[nH]cc(c34)CC2N(C)C1.O=C(O)C=CC(=O)O` (centres undefined), the growth inhibition call was “inactive”.
Regarding `C=C(C)[C@@H]1[C@H]2OC(=O)[C@@H]1[C@]1(O)C[C@H]3O[C@]34C(=O)O[C@H]2[C@]14C`, the growth inhibition call was “inactive”.
With `CC(=O)NCCSS(C)(=O)=O.CN(C)c1ccc2c(-c3ccccc3C(=O)O)c3ccc(N(C)C)cc3[o+]c2c1`, the growth inhibition call was “inactive”.
With `COc1ccc([C@@H](CN)C(C)C)cc1OC` the entry was “inactive”; with `N=C(N)/N=C(\N)Nc1ccc(Cl)cc1`, “inactive”; with `CN1[C@@H]2CNc3ccccc3[C@@H]2[C@@H]1CO`, “inactive”.
With `NCC(=O)Nc1ccc(Br)cc1C(=O)c1ccccc1` the entry was “inactive”.
With `COc1ccc(OC)c(C(O)C(C)N)c1.Cl` (centres undefined) the entry was “inactive”; with `CC(C)C[C@@H](NC(=O)[C@H](Cc1ccccc1)NC(=O)CNC(=O)[C@@H](C)NC(=O)[C@@H](N)Cc1ccc(O)cc1)C(=O)O`, “inactive”; with `CCO[C@H]1[C@H]2CC[C@@H]1NC2`, “inactive”.
On to `NNc1ccn([C@@H]2O[C@H](CO)[C@@H](O)[C@H]2O)c(=O)n1`, for which the growth inhibition call was “inactive”.
With `C[N+]1(C)C2CC(OC(=O)C(CO)c3ccccc3)CC1C1OC12.[Br-]` (centres undefined) the entry was “inactive”.
The same measure for `COc1cc2c(cc1OC)C1CC(=O)C(CC(C)C)CN1CC2` (centres undefined): “inactive”; for `O=[N+]([O-])c1c(NCCO)ccc2nonc12`: “inactive”.
The same measure for `CC12CCC(=O)C=C1C=CC1C2CCC2(C)C1CCC2(O)CCC(=O)[O-].[K+]` (centres undefined): “inactive”.
For `O=C(O)Cc1cccnc1C(=O)O`, the growth inhibition call was “inactive”.
With `O=C1CCN(C(=O)C2CCC2)CC1` the entry was “inactive”; with `C=CCc1cc(OC)c2c(c1OC)OCO2`, “inactive”.
The same measure for `c1ccc(CN2CCNCC2)nc1`: “inactive”; for `CC1C=CC=CCCC=CC=CC=CC=CC(OC2OC(C)C(O)C(N)C2O)CC2OC(O)(CC(O)C(O)CCC(O)CC(O)CC(O)CC(=O)OC(C)C(C)C1O)CC(O)C2C(=O)O` (centres undefined): “inactive”; for `O=C1CCCC2C3CC(CN12)C1CCCCN1C3.[O-][Cl+3]([O-])([O-])O` (centres undefined): “inactive”.
The same measure for `C=CCN1C[C@H]2CN(C(C)C)C[C@H]2C1=O`: “inactive”; for `O=C([O-])Cc1ccccc1.[Na+]`: “inactive”; for `CCC(C)C(=O)OC1CC2(C)C(c3ccoc3)OC(=O)CC23OC2(C)OC34C(OC(=O)C(C)C)C3(O)C(OC(=O)C5(C)OC5C)C5(C)CC3(O)C(C)(C5CC(=O)OC)C14O2` (centres undefined): “inactive”.
As to `CC(C)(CN)CNc1ccc([N+](=O)[O-])c2cccnc12`, the growth inhibition call is “inactive”.
Consider `O=C1C=C2C(=CCO[C@@H]2O)O1`, for which the growth inhibition call is “inactive”.
The same measure for `O=C(CBr)N1CC([N+](=O)[O-])([N+](=O)[O-])C1`: “inactive”.
With `COc1cc(OC)c(OC)cc1C=O` the entry was “inactive”.
The same measure for `C(=N/C12CN3CN(CN(C3)C1)C2)/c1cccnc1`: “inactive”; for `O=C(O)C[C@@H]1CC[C@H]2NC[C@@H](O)COC[C@@H]2O1`: “inactive”; for `NSC(=S)N1CCCC1`: “inactive”.
For `CC1CCC2(NC1)OC1CC3C4CC=C5CC(O)CCC5(C)C4CCC3(C)C1C2C` (centres undefined), the growth inhibition call is “inactive”.
With `O=C1[O][Pt]2([NH][C@@H]3CCCC[C@H]3[NH]2)[O]C1=O` the entry was “inactive”; with `CCCNC(=O)C1=NO[C@]2(CCNC2)C1`, “inactive”.
`CCC1(C2OC(C3OC(O)(CO)C(C)CC3C)CC2C)CCC(C2(C)CCC3(CC(O)C(C)C(C(C)C(OC)C(C)C(=O)[O-])O3)O2)O1.[Na+]` (centres undefined): the growth inhibition call was “active”.
With `O=S1(=O)COC2(CNC2)CN1` the entry was “inactive”.
